# Data taken from publication PMC12040169 (PLOS Biology, 2025).
# The list shows a part of the results.
# System: T1, C. trachomatis L2/434/Bu expressing GFP (CTL2-GFP)
# T1 construct: L2/434/Bu GFP intracellular growth in HeLa cells
# Design: species or system HeLa; C. trachomatis total inclusion area by high-content imaging, normalised to DMSO
# Settings: total inclusion area; 28.5 h, 10 µM; inhibitor
# Method in brief: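 Post-fluorescence-read fixation, DNA staining with Hoechst and high-content imaging; GFP inclusion area and number per well, and nuclei counts, used as proxies for bacterial growth and host viability.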
row,SMILES,% of control remaining
1,CCNc1ncc(C(=O)NC(CCn2ccnc2)c2ccccc2)cn1 (stereo not drawn) [CBK307066],65.017
2,COc1ccccc1-c1nccnc1NCc1ccc(OC(F)(F)F)cc1 [CBK036761],90.7606
3,COc1ccc(CCNS(=O)(=O)c2cc([N+](=O)[O-])ccc2C)cc1OC [CBK267412],86.1916
4,CN(CC1COCCO1)C(=O)c1cc(Cn2ccc3ccccc32)[nH]n1 (stereo not drawn) [CBK307673],83.7187
5,O=S(=O)(c1ccccc1)N1C[C@@H]2CCCCN(CC3CC3)[C@@H]2C1 [CBK285501],76.8492
6,O=C(Nc1ccccc1[N+](=O)[O-])c1ccc(Cl)c(S(=O)(=O)N2CCC(C(=O)O)CC2)c1 [CBK265180],91.3625
7,Cc1cccc(C(C)(C)C)c1OCCNCCN [CBK265058G],104.562
8,Cc1ccc(CSCCNS(=O)(=O)c2cccc([N+](=O)[O-])c2)cc1 [CBK267864],76.4791
9,CNC(=O)c1oc(-c2ccc(OC)cc2)c(-c2ccc(OC)cc2)c1C(=O)NC [CBK001956],84.543
10,Cc1c(C(c2ccc3ccccc3c2)c2c(C)n(C)n(-c3ccccc3)c2=O)c(=O)n(-c2ccccc2)n1C [CBK261692],73.6098
11,CCCCC(=O)N(C)c1c(CC)nc2c(OCCn3cccc3)cccn12 [CBK147785],120.919
12,CCCCCCN(CCN1CCOCC1)C(=O)Nc1cc(C)on1 [CBK305147],78.4373
13,N#Cc1ccc(CN2CCN(S(=O)(=O)c3ccc(-n4cnc(Cl)c4Cl)cc3)CC2)cc1 [CBK062972],78.7107
14,Cc1ccccc1Nc1nc(N)nc(CN2CCN(C)CC2)n1 [CBK304217],70.9558
15,O=[N+]([O-])c1ccc2c(c1)C(N1CCOCC1)/C(=C/C1(O)CCCCC1)O2 (stereo not drawn) [CBK263200],35.7614
16,Cc1nc(C)c(-c2csc(Nc3ccc(S(N)(=O)=O)cc3)n2)s1 [CBK263292B],76.8938
17,Cn1nc(C2CCCCC2)cc1[C@H]1CN2CC[C@H]1C[C@@H]2CNC(=O)c1ccco1 [CBK289106],104.537
18,CN(C)CCN(Cc1ccccc1)C(=O)NCc1cccnc1 [CBK145048],102.239
19,Cc1cc2c(=O)n(Cc3ccco3)c(SCc3nc4ccccc4[nH]3)nc2s1 [CBK268202],101.783
20,CN(C)CCN(C)c1cncc(-c2ccc(Cl)cc2)n1 [CBK065724],41.7152

row,SMILES,% of control remaining
1,CC(=O)OCc1ccc(CN2CCCCCC2c2cc(C)on2)o1 (stereo not drawn) [CBK283004],106.132
2,Cc1ccc(S(=O)(=O)NCc2c(-c3ccccc3)c3cc(Br)ccc3[nH]c2=O)cc1 [CBK265231],82.3981
3,O=C(CC1(O)C(=O)N(CN2CCOCC2)c2ccccc21)c1ccc2c(c1)OCO2 (stereo not drawn) [CBK269639],87.9483
4,COc1ccc(S(=O)(=O)NCCO)cc1-c1nnc2c3ccccc3c(C)nn12 [CBK266933],108.802
5,O=C(c1ccc(OC(F)(F)F)cc1)N1CCN(c2nnnn2-c2ccccc2)CC1 [CBK296622],117.087
6,COCCNc1nc(-c2cccc(Cl)c2Cl)ccc1C(=O)N(C)CCN(C)C [CBK105922],76.2067
7,Cn1c(=O)n(CC(=O)N2CCc3ccccc32)c2cccnc21 [CBK283792],67.7114
8,COCCNC(=O)c1ccc(-c2ccccc2CO)nc1N1CCOCC1 [CBK076559],104.756
9,CCN(CC)C(=O)N1CCC2(CC1)CC(=O)c1ccccc1O2 [CBK283495],95.7097
10,COCCN1CCOC2(CCN(C(=O)c3ccc(C)cc3)CC2)C1c1ccccc1OC (stereo not drawn) [CBK112657C],95.0217
11,O=C(O)CN(Cc1ccccc1)Cc1ccccc1 [CBK260903],89.2042
12,Cc1cccc(Cn2cnc(NC(=O)COc3ccc([N+](=O)[O-])c(C)c3)n2)c1 [CBK268177],108.41
13,CN1CCN(C(=O)Cn2c(-c3cccs3)cc3cccnc32)CC1 [CBK282558],111.484
14,N#CCCCN1CCC(Oc2nccnc2OCc2ccccc2C(F)(F)F)CC1 [CBK153636],85.0728
15,COc1ccc(CC(=O)N2C3CCC2CC(O)(c2ccco2)C3)cc1 (stereo not drawn) [CBK284137],84.4886
16,CCOc1ccc(CNCCc2ccc(S(N)(=O)=O)cc2)cc1 [CBK268090C],104.493
17,O=C(CSc1nc(O)c2c(-c3ccccc3)csc2n1)NCCc1ccccc1 [CBK268077],100.579
18,Cc1ccc(OCc2nnc(SCc3cccc(C#N)c3)n2N)cc1C [CBK267420],110.566
19,O=C(O)c1[nH]c2ccccc2c1NS(=O)(=O)c1ccc(Br)cc1 [CBK049878],75.5204
